± gives the standard deviation of the averaged measurements. Whole data set: some 33,000 sequences, median “E-score (dimensionless, -0.5 to 0.5)” near -0.049, cut for the highest 2% near 0.37. The list shows a part of the results.
Tested on: T1, PmTbr T-box DNA-binding domain (GST fusion)
T1 sequence: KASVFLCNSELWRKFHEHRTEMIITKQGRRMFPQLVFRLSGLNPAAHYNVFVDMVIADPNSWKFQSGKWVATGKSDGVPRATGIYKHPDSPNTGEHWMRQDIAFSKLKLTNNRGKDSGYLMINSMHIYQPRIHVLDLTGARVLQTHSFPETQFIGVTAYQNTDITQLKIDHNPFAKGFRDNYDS
Test: PBM E-score of 8-mer (E-score (dimensionless, -0.5 to 0.5)); Tbr is Tbrain of the sea star Patiria miniata (Pm) or the sea urchin Strongylocentrotus purpuratus (Sp); higher = stronger binding preference; most listed sequences are background and not binding sites
Conditions: the construct has about 5 more residues each side
Summary of the method: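 Each ungapped 8-mer received an enrichment E-score from the Universal PBM Analysis Suite, averaged over duplicate arrays. The proteins were Tbr T-box DNA-binding domains, covering the whole T-box plus about five flanking residues, fused to GST and expressed in BL21 E. coli at 20 °C before glutathione affinity purification. Universal Agilent oligonucleotide arrays were made double-stranded by primer extension and incubated with 200 nM protein in PBS (pH 7.5). The arrays were then scanned and quantified, and every 8-mer was scored from probe intensities.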

Point of comparison: GGGCCCAC, “PBM E-score of 8-mer” value -0.094 ± 0.051. Against it:
- GTTCAAAC — within error, -0.13 ± 0.059
- ATGAAGAG — lower, -0.245 ± 0.035
- CTTCGAAA — within error, -0.0538 ± 0.053
- AAGTGAGG — higher, 0.2407 ± 0.0011
- ATGACTCA — within error, -0.058 ± 0.044
- CCATGCCC — within error, -0.148 ± 0.011
- CCTGGATC — within error, -0.1384 ± 0.00035
- ATCTTCTC — within error, -0.04412 ± 4.2e-05
- CTGCGCAG — higher, 0.0276 ± 0.062
- CTCACGCA — higher, 0.306 ± 0.019
- CGAACCTA — within error, -0.191 ± 0.074
- ACTTGTTA — higher, 0.372 ± 0.044
- ACCCGCAA — higher, -0.0362 ± 0.0055
- ATTATAAC — higher, 0.0889 ± 0.037
- CTGGGCCA — lower, -0.217 ± 0.042
- GCGACTGA — within error, -0.0494 ± 0.013
- GTGTTAGA — higher, 0.419 ± 0.0094
- AGGAGTCG — higher, 0.0886 ± 0.023
- ATGCCAAC — higher, 0.0888 ± 0.00082
- CAACGATA — higher, -5e-05 ± 0.011
- AAATCTAG — within error, -0.091 ± 0.019
- CAGCACAG — within error, -0.0973 ± 0.029
- AGATCCGC — within error, -0.0397 ± 0.13
- ATTAGTGC — higher, 0.18 ± 0.041
- TCAGGCGA — higher, 0.128 ± 0.0029
- GCTGGCAA — higher, 0.0997 ± 0.018
- CACAGCGG — higher, 0.184 ± 0.0041
- AATAGGGA — within error, -0.0296 ± 0.086
- GAACAATA — within error, -0.139 ± 0.042
- CAGAAGAG — within error, -0.173 ± 0.051
- ATTCCGTG — within error, -0.106 ± 0.03
- ACTATCTA — higher, 0.104 ± 0.0045
- AAATTTGT — higher, 0.087 ± 0.045
- AGGAAGAT — within error, -0.137 ± 0.069
- GAGAAGAC — higher, -0.0151 ± 0.023
- CCGTCGCG — higher, 0.106 ± 0.099
- GGTGTTTA — higher, 0.399 ± 0.015
- GAGCAAGA — lower, -0.253 ± 0.034
- CAGCCTCG — lower, -0.19 ± 0.035
- CCGAGAGG — higher, 0.00471 ± 0.011
- GTTCGGGA — lower, -0.192 ± 0.024
- CCTGCCCG — within error, -0.0748 ± 0.091
- AGAATGTG — higher, 0.314 ± 0.042
- GTGAGATA — higher, 0.317 ± 0.015
- ATCCGAGC — within error, -0.172 ± 0.055
- CCACGAAG — within error, -0.0956 ± 0.0077
- CTTTACCA — within error, -0.0205 ± 0.071
- CCGTGCCG — higher, 0.02971 ± 9.2e-05
- AGACTAAA — within error, -0.0678 ± 0.053
- CACGCCAG — higher, 0.207 ± 0.033
- CGTACAAA — within error, -0.15 ± 0.024
- AGTCGCAG — higher, 0.0399 ± 0.06
- TCCTACAA — lower, -0.231 ± 0.04
- GGTTGGAA — within error, -0.0253 ± 0.034
- ACCAGGCT — higher, -0.018 ± 0.016
- GCCCCGTA — higher, -0.0249 ± 0.0021
- GGCCACTA — within error, -0.146 ± 0.012
- CAACCCAA — within error, -0.139 ± 0.029
- TGCCCACA — within error, -0.0968 ± 0.015
- ATGAGTAG — within error, -0.0171 ± 0.034
- CGAGACAG — within error, -0.0127 ± 0.069
- ACGTTGTC — higher, 0.135 ± 0.013
- GCCCTAGA — within error, -0.11 ± 0.022
- CATGAGCG — within error, 0.0193 ± 0.096
- GACCTATC — within error, -0.0538 ± 0.05
- AATAAACT — within error, -0.157 ± 0.12
- GAAAGTTA — within error, -0.053 ± 0.074
- AAGCACGC — within error, -0.113 ± 0.015
- ATGGTCCG — within error, -0.0567 ± 0.063
- CCCCCCGA — lower, -0.2442 ± 1.4e-05
- GTCCTGCA — lower, -0.173 ± 0.012
- ACATTTCG — higher, 0.0484 ± 0.0049
- CAAGAAAC — lower, -0.223 ± 0.047
- CGGTGTTA — higher, 0.37 ± 0.0083
- ATGCGGGC — lower, -0.315 ± 0.036
- ACATCAGT — higher, 0.0692 ± 0.042
- ATGCACGC — within error, -0.171 ± 0.14
- CGTACAAC — within error, -0.00585 ± 0.067
- GATCGCCC — within error, -0.0613 ± 0.016
- ACTAGGTC — within error, -0.143 ± 0.0081
- TCTTATCA — within error, -0.0374 ± 0.16
- CGATTTAC — higher, 0.143 ± 0.051
- AATGTTTA — within error, -0.1421 ± 0.0011
- ATTACCCA — within error, -0.183 ± 0.11
- CGACGGCC — within error, -0.169 ± 0.035
- ACGAGCCG — within error, -0.0699 ± 0.13
- ACAAGCTA — within error, -0.0967 ± 0.014
- TGAATTAA — within error, -0.157 ± 0.12
- AGATTGGG — lower, -0.299 ± 0.04
- CCTTCACC — higher, 0.0909 ± 0.047
- ACGGGGTG — higher, 0.313 ± 0.01
- AGGAATTC — lower, -0.282 ± 0.041
- AAAACGCT — lower, -0.182 ± 0.034
- CAACTATA — within error, -0.125 ± 0.023
- ACCGTCCA — lower, -0.243 ± 0.045
- CACCGCGA — higher, 0.211 ± 0.016
- ATGCAGCA — within error, -0.1 ± 0.0058
- CAACGGTG — higher, 0.176 ± 0.058
- AAAATTTC — within error, -0.126 ± 0.1
- ACGTCAAT — higher, 0.0492 ± 0.055
- AACGGTCG — within error, -0.112 ± 0.041
- CCTCGGCG — lower, -0.188 ± 0.042
- AGGAGCCC — lower, -0.363 ± 0.032
- AAGTCGAC — higher, 0.16 ± 0.026
- TGGGCTAA — within error, -0.121 ± 0.0082
- AAAAAAAG — within error, -0.11 ± 0.085
- AAAACACA — higher, 0.154 ± 0.065
- CCTCAGTC — within error, -0.0578 ± 0.014
- AAATGCTC — within error, -0.031 ± 0.035
- CTTCTTAA — within error, -0.116 ± 0.058
- AGGGCGCG — higher, 0.304 ± 0.0072
- AGCAATTC — higher, 0.0904 ± 0.015
- GATGAAAA — higher, 0.111 ± 0.0026
- CTTCAACA — within error, 0.0811 ± 0.14
- CGCCCGAA — higher, 0.0189 ± 0.025
- AAACTCAG — lower, -0.214 ± 0.023
- CCACCATC — higher, 0.0197 ± 0.0012
- ATTCCATA — within error, -0.142 ± 0.025
- GGAGAAAC — within error, -0.02 ± 0.066
- TCACCGGA — lower, -0.269 ± 0.012
- CCCCACAC — higher, 0.285 ± 0.0031
- CCCCTTTC — within error, -0.124 ± 0.061
- CGCGGCGC — higher, 0.154 ± 0.0014
- ACATAGAT — within error, -0.0623 ± 0.015
- CAAGAGAC — within error, -0.0802 ± 0.042
- ATCGCTGA — higher, 0.0416 ± 0.057
- ATGTGATG — higher, 0.338 ± 0.025
- ATCAAAGC — lower, -0.293 ± 0.0095
- TAGCGAAA — higher, 0.0843 ± 0.097
- TAGCTACA — within error, -0.184 ± 0.076
- ACAGCTGT — higher, 0.312 ± 0.0093
- TCGGCCGA — higher, 0.059 ± 0.0033
- AGCCCAGG — lower, -0.302 ± 0.023
- TCCAGACA — higher, 0.0343 ± 0.049
- GACTTGTA — within error, -0.144 ± 0.12
- CCTCCTCA — higher, 0.123 ± 0.0097
- AACTGAGT — within error, -0.0725 ± 0.037
- AATGGTAT — within error, -0.0355 ± 0.096
- AGACACGC — higher, 0.09356 ± 0.00023
- GTAACTCA — higher, 0.0277 ± 0.031
- GAGACGCC — within error, -0.14242 ± 7.1e-06
- ACACTGCG — higher, 0.276 ± 0.023
- CAAACGGA — within error, -0.0347 ± 0.041
- AAGGAGGG — within error, -0.0858 ± 0.011
- CTACCTCC — within error, -0.0456 ± 0.027
- AAAGTGCA — higher, 0.0982 ± 0.0028
- AAAAAGGC — higher, 0.0561 ± 0.038
- ACCCATAC — within error, -0.0348 ± 0.016
- ACTGCCCT — within error, -0.0758 ± 0.018
- CGTGGCCC — within error, -0.148 ± 0.091
- AATCTCGA — within error, -0.0492 ± 0.025
- CGGATAAG — within error, -0.0382 ± 0.032
- GGGGTGCA — higher, 0.1329 ± 0.00018
- CGACTGCG — within error, -0.0704 ± 0.032
- ACCATATA — lower, -0.241 ± 0.095
- ACCAAATG — higher, -0.0173 ± 0.0011
- CGAAACAA — higher, 0.00218 ± 0.014
- ACCCTAGT — within error, 0.00685 ± 0.053
- GTCATGAC — within error, -0.0323 ± 0.014
- AAGAGCGA — within error, -0.169 ± 0.029
- GAAACTCA — higher, -0.0114 ± 0.018
- GCAATCCA — within error, -0.0287 ± 0.016
- ATTTCGAC — higher, 0.13 ± 0.058
- ACCGCTCA — within error, -0.084 ± 0.012
- AATTTGAT — within error, -0.152 ± 0.12
- CGTCGCTC — higher, -0.0135 ± 0.0094
- CGGGAGTA — within error, -0.149 ± 0.033
- GCAACAGC — higher, 0.078 ± 0.014
- ACTCGGAA — within error, -0.122 ± 0.051
- ACAACCGC — higher, 0.141 ± 0.013
- TTCAGCAA — higher, 0.17 ± 0.04
